According to the supplement of paper PMC11741623:
Some of the results follow. Interaction screen of human proteins with wild-type SARS-CoV-2 proteins by split-DHFR complementation in yeast, 1 µg/mL methotrexate. Value = fitness of the pair (three or more lineages) minus that of the viral protein without a human partner, on a scale set by negative (0) and fused positive (1) controls, mean of up to three cultures; higher = more likely to interact. Active = false discovery rate below 0.05 (one-sided t-test) in at least one culture. Nearly all pairs are not hits, and differences among them are mostly noise (correlation between cultures about 0.3); most hits were seen in one culture only. Human sequences are the Swiss-Prot entries looked up by gene name; the clone may be another isoform. NSP2 values were corrected by the authors for a growth advantage. Listed are human proteins with a hit and a random twelfth of the others.

B1: FADS3, Q9Y5Q0 (protein)
chain: MGGVGEPGPREGPAQPGAPLPTFCWEQIRAHDQPGDKWLVIERRVYDISRWAQRHPGGSRLIGHHGAEDATDAFRAFHQDLNFVRKFLQPLLIGELAPEEPSQDGPLNAQLVEDFRALHQAAEDMKLFDASPTFFAFLLGHILAMEVLAWLLIYLLGPGWVPSALAAFILAISQAQSWCLQHDLGHASIFKKSWWNHVAQKFVMGQLKGFSAHWWNFRHFQHHAKPNIFHKDPDVTVAPVFLLGESSVEYGKKKRRYLPYNQQHLYFFLIGPPLLTLVNFEVENLAYMLVCMQWADLLWAASFYARFFLSYLPFYGVPGVLLFFVAVRVLESHWFVWITQMNHIPKEIGHEKHRDWVSSQLAATCNVEPSLFTNWFSGHLNFQIEHHLFPRMPRHNYSRVAPLVKSLCAKHGLSYEVKPFLTALVDIVRSLKKSGDIWLDAYLHQ
B2: KIR3DS1, Q14943 (protein)
chain: MLLMVVSMACVGLFLVQRAGPHMGGQDKPFLSAWPSAVVPRGGHVTLRCHYRHRFNNFMLYKEDRIHVPIFHGRIFQEGFNMSPVTTAHAGNYTCRGSHPHSPTGWSAPSNPMVIMVTGNHRKPSLLAHPGPLVKSGERVILQCWSDIMFEHFFLHREWISKDPSRLVGQIHDGVSKANFSIGSMMRALAGTYRCYGSVTHTPYQLSAPSDPLDIVVTGLYEKPSLSAQPGPKVQAGESVTLSCSSRSSYDMYHLSREGGAHERRLPAVRKVNRTFQADFPLGPATHGGTYRCFGSFRHSPYEWSDPSDPLLVSVTGNPSSSWPSPTEPSSKSGNLRHLHILIGTSVVKIPFTILLFFLLHRWCSNKKKCCCNGPRACREQK
B3: FUK, Q8N0W3 (protein)
chain: MEQPKGVDWTVIILTCQYKDSVQVFQRELEVRQKREQIPAGTLLLAVEDPEKRVGSGGATLNALLVAAEHLSARAGFTVVTSDVLHSAWILILHMGRDFPFDDCGRAFTCLPVENPEAPVEALVCNLDCLLDIMTYRLGPGSPPGVWVCSTDMLLSVPANPGISWDSFRGARVIALPGSPAYAQNHGVYLTDPQGLVLDIYYQGTEAEIQRCVRPDGRVPLVSGVVFFSVETAERLLATHVSPPLDACTYLGLDSGARPVQLSLFFDILHCMAENVTREDFLVGRPPELGQGDADVAGYLQSARAQLWRELRDQPLTMAYVSSGSYSYMTSSASEFLLSLTLPGAPGAQIVHSQVEEQQLLAAGSSVVSCLLEGPVQLGPGSVLQHCHLQGPIHIGAGCLVTGLDTAHSKALHGRELRDLVLQGHHTRLHGSPGHAFTLVGRLDSWERQGAGTYLNVPWSEFFKRTGVRAWDLWDPETLPAEYCLPSARLFPVLHPSRELGPQDLLWMLDHQEDGGEALRAWRASWRLSWEQLQPCLDRAATLASRRDLFFRQALHKARHVLEARQDLSLRPLIWAAVREGCPGPLLATLDQVAAGAGDPGVAARALACVADVLGCMAEGRGGLRSGPAANPEWMRPFSYLECGDLAAGVEALAQERDKWLSRPALLVRAARHYEGAGQILIRQAVMSAQHFVSTEQVELPGPGQWVVAECPARVDFSGGWSDTPPLAYELGGAVLGLAVRVDGRRPIGARARRIPEPELWLAVGPRQDEMTVKIVCRCLADLRDYCQPHAPGALLKAAFICAGIVHVHSELQLSEQLLRTFGGGFELHTWSELPHGSGLGTSSILAGTALAALQRAAGRVVGTEALIHAVLHLEQVLTTGGGWQDQVGGLMPGIKVGRSRAQLPLKVEVEEVTVPEGFVQKLNDHLLLVYTGKTRLARNLLQDVLRSWYARLPAVVQNAHSLVRQTEECAEGFRQGSLPLLGQCLTSYWEQKKLMAPGCEPLTVRRMMDVLAPHVHGQSLAGAGGGGFLYLLTKEPQQKEALEAVLAKTEGLGNYSIHLVEVDTQGLSLKLLGTEASTCCPFP
B4: C5orf24, Q7Z6I8 (protein)
chain: MMHPVASSNPAFCGPGKPSCLNEDAMRAADQFDIYSSQQSKYSHTVNHKPMVCQRQDPLNETHLQTTSGRSIEIKDELKKKKNLNRSGKRGRPSGTTKSAGYRTSTGRPLGTTKAAGFKTSPGRPLGTTKAAGYKVSPGRPPGSIKALSRLADLGYGCGTAAFPYPMMHGRAVHGVEETSSEVKPPNE

These binders were tested against SARS-CoV-2 E (assay: yeast fitness gain over the viral ORF with no human partner (scaled fitness); higher = more likely to interact).
Procedure: (§1)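 Split mouse DHFR complementation in pooled diploid yeast: human ORFeome clones carry one fragment and viral ORFs the other; barcoded lineages compete in 1 µg/mL methotrexate and fitness is read by barcode sequencing in up to three cultures.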
B1 was tested, and the yeast fitness gain was inactive: -0.0294. In the case of B2, the yeast fitness gain is reported as inactive: -0.0131. With B3 the yeast fitness gain was inactive: -0.0545. With B4 the yeast fitness gain was inactive: -0.0251.

Each binder was assayed against SARS-CoV-2 M in the same assay as above.
Procedure: as §1
For B1, the yeast fitness gain was inactive: 0.0479. In the case of B2, the yeast fitness gain is reported as inactive: -0.0899. For B3, the yeast fitness gain was inactive: -0.0157. For B4, the yeast fitness gain was inactive: -0.0606.

Each binder was assayed against SARS-CoV-2 N in the same assay as above.
Procedure: as §1
In the case of B1, the yeast fitness gain is reported as inactive: 0.0598. With B2 the yeast fitness gain was inactive: 0.0449. For B3, the yeast fitness gain was inactive: 0.0434. For B4, the yeast fitness gain was inactive: -0.00645.

The binders below were run against SARS-CoV-2 NSP1 in the same assay as above.
Procedure: as §1
B1 was tested, and the yeast fitness gain was inactive: -0.0062. For B2, the yeast fitness gain was inactive: 0.0348. With B3 the yeast fitness gain was inactive: 0.0722.

Each binder was assayed against SARS-CoV-2 NSP10 in the same assay as above.
Procedure: as §1
B1 was tested, and the yeast fitness gain was inactive: -0.00303. B2 was tested, and the yeast fitness gain was inactive: -0.00471. B3 was tested, and the yeast fitness gain was inactive: -0.00116. In the case of B4, the yeast fitness gain is reported as inactive: 0.0169.

What follows are binders tested against SARS-CoV-2 NSP12 in the same assay as above.
Procedure: as §1
B1 was tested, and the yeast fitness gain was inactive: 0.0213. With B2 the yeast fitness gain was inactive: 0.0458. B3 was tested, and the yeast fitness gain was inactive: -0.0376. In the case of B4, the yeast fitness gain is reported as inactive: -0.219.

Each binder was assayed against SARS-CoV-2 NSP13 in the same assay as above.
Procedure: as §1
In the case of B1, the yeast fitness gain is reported as inactive: 0.0262. In the case of B2, the yeast fitness gain is reported as inactive: -0.0245. With B3 the yeast fitness gain was inactive: -0.0181. With B4 the yeast fitness gain was inactive: -0.0174.

Each binder was assayed against SARS-CoV-2 NSP14 in the same assay as above.
Procedure: as §1
In the case of B1, the yeast fitness gain is reported as inactive: 0.0497. B3 was tested, and the yeast fitness gain was inactive: 0.0916.

The binders below were run against SARS-CoV-2 NSP15 in the same assay as above.
Procedure: as §1
For B1, the yeast fitness gain was inactive: 0.0465. In the case of B2, the yeast fitness gain is reported as inactive: -0.0435. B3 was tested, and the yeast fitness gain was inactive: 0.0273.

These binders were tested against SARS-CoV-2 NSP16 in the same assay as above.
Procedure: as §1
With B1 the yeast fitness gain was inactive: -0.0377. In the case of B2, the yeast fitness gain is reported as inactive: -0.0581. B3 was tested, and the yeast fitness gain was inactive: 0.058. B4 was tested, and the yeast fitness gain was inactive: 0.0612.

What follows are binders tested against SARS-CoV-2 NSP2 in the same assay as above.
Procedure: as §1
B1 was tested, and the yeast fitness gain was inactive: -0.129. B2 was tested, and the yeast fitness gain was inactive: -0.144. With B3 the yeast fitness gain was inactive: -0.102. B4 was tested, and the yeast fitness gain was inactive: -0.376.

These binders were tested against SARS-CoV-2 NSP4 in the same assay as above.
Procedure: as §1
In the case of B1, the yeast fitness gain is reported as inactive: 0.175. B2 was tested, and the yeast fitness gain was inactive: 0.0869.

Each binder was assayed against SARS-CoV-2 NSP5 in the same assay as above.
Procedure: as §1
For B1, the yeast fitness gain was inactive: 0.00351. With B2 the yeast fitness gain was inactive: -0.0626. For B3, the yeast fitness gain was inactive: 0.0555. In the case of B4, the yeast fitness gain is reported as inactive: 0.116.

What follows are binders tested against SARS-CoV-2 NSP6 in the same assay as above.
Procedure: as §1
B1 was tested, and the yeast fitness gain was inactive: -0.00149. With B2 the yeast fitness gain was inactive: -0.059. B3 was tested, and the yeast fitness gain was inactive: -0.0436.

Each binder was assayed against SARS-CoV-2 NSP7 in the same assay as above.
Procedure: as §1
For B1, the yeast fitness gain was inactive: 0.0427. With B2 the yeast fitness gain was inactive: 0.00541. B3 was tested, and the yeast fitness gain was inactive: -0.0704. B4 was tested, and the yeast fitness gain was inactive: -0.154.

The binders below were run against SARS-CoV-2 NSP8 in the same assay as above.
Procedure: as §1
For B1, the yeast fitness gain was inactive: 0.0528. For B2, the yeast fitness gain was inactive: 0.0794. B3 was tested, and the yeast fitness gain was inactive: 0.0166.

The binders below were run against SARS-CoV-2 NSP9 in the same assay as above.
Procedure: as §1
For B1, the yeast fitness gain was inactive: -0.00631. For B2, the yeast fitness gain was inactive: 0.0262. In the case of B3, the yeast fitness gain is reported as inactive: -0.129.

What follows are binders tested against SARS-CoV-2 ORF10 in the same assay as above.
Procedure: as §1
In the case of B1, the yeast fitness gain is reported as inactive: 0.0128. For B2, the yeast fitness gain was inactive: -0.0261. In the case of B3, the yeast fitness gain is reported as inactive: 0.0114. B4 was tested, and the yeast fitness gain was inactive: -0.00196.

These binders were tested against SARS-CoV-2 ORF3A in the same assay as above.
Procedure: as §1
In the case of B1, the yeast fitness gain is reported as inactive: 0.0168. With B2 the yeast fitness gain was inactive: -0.0293. In the case of B3, the yeast fitness gain is reported as inactive: 0.0857.

Each binder was assayed against SARS-CoV-2 ORF3B in the same assay as above.
Procedure: as §1
B1 was tested, and the yeast fitness gain was inactive: 0.0221. With B2 the yeast fitness gain was inactive: 0.0164. B3 was tested, and the yeast fitness gain was inactive: 0.00965. With B4 the yeast fitness gain was inactive: -0.264.

The binders below were run against SARS-CoV-2 ORF6 in the same assay as above.
Procedure: as §1
With B1 the yeast fitness gain was inactive: 0.0137. With B2 the yeast fitness gain was inactive: -0.00273. In the case of B3, the yeast fitness gain is reported as inactive: 0.00795. B4 was tested, and the yeast fitness gain was inactive: 0.00252.

These binders were tested against SARS-CoV-2 ORF7A in the same assay as above.
Procedure: as §1
In the case of B1, the yeast fitness gain is reported as inactive: -0.0327. For B2, the yeast fitness gain was inactive: -0.0804. For B3, the yeast fitness gain was inactive: -0.0348. In the case of B4, the yeast fitness gain is reported as inactive: -0.0739.

Each binder was assayed against SARS-CoV-2 ORF7B in the same assay as above.
Procedure: as §1
For B1, the yeast fitness gain was inactive: 0.0541. B2 was tested, and the yeast fitness gain was inactive: -0.0843. With B3 the yeast fitness gain was inactive: -0.00244. For B4, the yeast fitness gain was inactive: -0.261.

The binders below were run against SARS-CoV-2 ORF8 in the same assay as above.
Procedure: as §1
With B1 the yeast fitness gain was inactive: 0.0602. B2 was tested, and the yeast fitness gain was inactive: 0.0192. In the case of B3, the yeast fitness gain is reported as inactive: -0.0282. For B4, the yeast fitness gain was inactive: -0.0832.

These binders were tested against SARS-CoV-2 ORF9B in the same assay as above.
Procedure: as §1
With B1 the yeast fitness gain was inactive: -0.00303. For B2, the yeast fitness gain was inactive: -0.00794. B3 was tested, and the yeast fitness gain was inactive: 0.0153. B4 was tested, and the yeast fitness gain was inactive: -0.017.

The binders below were run against SARS-CoV-2 ORF9Bwu (the 73-codon ORF) in the same assay as above.
Procedure: as §1
With B1 the yeast fitness gain was inactive: 0.0176. For B2, the yeast fitness gain was inactive: -0.061. With B3 the yeast fitness gain was inactive: -0.0133.

The binders below were run against SARS-CoV-2 S in the same assay as above.
Procedure: as §1
B1 was tested, and the yeast fitness gain was inactive: 0.0551. With B2 the yeast fitness gain was inactive: 0.0053. B3 was tested, and the yeast fitness gain was inactive: 0.0282. B4 was tested, and the yeast fitness gain was inactive: 0.089.
